The source of these data is publication PMC4336329 (PLoS ONE, 2015).

The campaign covered roughly 310,000 compounds. About 2,200 (0.71%) showed an effect of 50% or more. Effects have a minus sign here. The list shows a part of the results.

In this assay the target is human ether-à-go-go-related gene (hERG) potassium channel (human, UniProt Q12809). Description: primary screen, population patch clamp on CHO cells stably expressing hERG.
human ether-à-go-go-related gene (hERG) potassium channel, sequence (Q12809 whole entry, looked up): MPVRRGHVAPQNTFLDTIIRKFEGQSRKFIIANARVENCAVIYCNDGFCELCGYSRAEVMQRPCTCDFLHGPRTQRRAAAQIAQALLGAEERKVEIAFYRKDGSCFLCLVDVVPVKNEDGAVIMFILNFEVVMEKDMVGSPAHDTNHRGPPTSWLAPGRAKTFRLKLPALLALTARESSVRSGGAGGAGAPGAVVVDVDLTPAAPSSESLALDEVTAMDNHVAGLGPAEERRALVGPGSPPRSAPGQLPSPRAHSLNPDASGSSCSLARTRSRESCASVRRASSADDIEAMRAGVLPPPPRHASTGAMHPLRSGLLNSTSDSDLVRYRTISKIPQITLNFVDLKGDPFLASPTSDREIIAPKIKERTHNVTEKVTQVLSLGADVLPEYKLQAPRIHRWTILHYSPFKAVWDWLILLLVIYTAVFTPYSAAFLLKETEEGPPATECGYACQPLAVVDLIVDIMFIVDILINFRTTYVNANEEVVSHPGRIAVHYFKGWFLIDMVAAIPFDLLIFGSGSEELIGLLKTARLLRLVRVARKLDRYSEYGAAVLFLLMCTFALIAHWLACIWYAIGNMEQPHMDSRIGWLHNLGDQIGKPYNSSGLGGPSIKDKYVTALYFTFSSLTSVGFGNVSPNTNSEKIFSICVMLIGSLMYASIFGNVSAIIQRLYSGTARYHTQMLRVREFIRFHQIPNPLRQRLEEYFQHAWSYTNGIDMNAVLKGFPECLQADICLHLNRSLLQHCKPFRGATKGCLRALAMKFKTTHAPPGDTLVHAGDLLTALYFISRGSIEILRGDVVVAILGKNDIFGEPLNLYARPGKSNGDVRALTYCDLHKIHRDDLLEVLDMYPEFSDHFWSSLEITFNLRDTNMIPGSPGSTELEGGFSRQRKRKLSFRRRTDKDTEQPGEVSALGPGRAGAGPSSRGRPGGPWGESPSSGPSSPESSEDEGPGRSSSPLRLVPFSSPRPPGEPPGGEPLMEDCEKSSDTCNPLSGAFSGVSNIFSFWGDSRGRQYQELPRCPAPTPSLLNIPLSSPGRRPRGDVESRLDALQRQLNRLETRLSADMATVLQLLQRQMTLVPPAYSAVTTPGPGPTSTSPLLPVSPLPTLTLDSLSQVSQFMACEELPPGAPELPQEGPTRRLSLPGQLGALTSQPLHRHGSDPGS
On to `CCCCNC(=O)CCCCC(=O)N/N=C/c1cccc(Cl)c1`, for which the “hERG current change (%, negative = inhibition) at 1uM” value is reported as 7.51%.

Turning to `Cc1ccc(NC(=O)c2ccccc2-c2ccccc2C(=O)O)cc1`, the “hERG current change (%, negative = inhibition) at 1uM” value is 13.4%.

Consider `CCCn1c(=O)n(C)c(=O)c2c(SCc3cc(C(C)=O)ccc3OCC)nc(C3CC3)nc21`, for which the “hERG current change (%, negative = inhibition) at 1uM” value is listed as 6.55%.

Take `Cc1ccc(/C=N/NC(=O)Nc2ccccc2)o1`: the “hERG current change (%, negative = inhibition) at 1uM” value was 13.6%.

With `COc1ccc(N(C=O)C(C(=O)Nc2c(C)cccc2C)c2ccccc2)cc1` (stereo not shown), the “hERG current change (%, negative = inhibition) at 1uM” value was determined as 1.19%.

Regarding `O=C(Nc1nonc1-c1ccc(F)cc1)c1ccco1`, the “hERG current change (%, negative = inhibition) at 1uM” value worked out at 0.404%.

For `ClC1=C(Cl)C(Cl)=C(Cl)C1=C/C=C/c1ccccc1`, the “hERG current change (%, negative = inhibition) at 1uM” value is reported as 9.93%.

Take `COC(=O)C(CCSC)NC(=O)Cn1ncc2c(=O)oc3ccc(C)cc3c21` (stereo not shown): the “hERG current change (%, negative = inhibition) at 1uM” value was 6.22%.

As to `CCn1cc(S(=O)(=O)N2CCc3ccccc3C2)cn1`, the “hERG current change (%, negative = inhibition) at 1uM” value is 16%.

On to `O=C(CCNc1ccc(F)cc1)c1cc2ccccc2o1`, for which the “hERG current change (%, negative = inhibition) at 1uM” value stood at 9.72%.

Turning to `Cc1ccsc1/C=N\NC(=O)CCc1c(C)n[nH]c1C`, the “hERG current change (%, negative = inhibition) at 1uM” value is on record as 2.2%.

Consider `Cc1cc(C(=O)Nc2ccccc2C(=O)O)ccc1NC(=O)COc1cccc(C)c1C`, for which the “hERG current change (%, negative = inhibition) at 1uM” value is given as 7.97%.

As to `CCOc1cc2c(cc1/C=C/c1noc(C)c1[N+](=O)[O-])OC(C)C2` (stereo not shown), the “hERG current change (%, negative = inhibition) at 1uM” value came out at 15%.

Turning to `Cc1ccc(CNC(=O)C2CCN(S(=O)(=O)c3c(C)noc3/C=C/N(C)C)CC2)cc1`, the “hERG current change (%, negative = inhibition) at 1uM” value turned out to be 12.8%.

Regarding `O=C(O)c1ccccc1OCc1nc2ccccc2s1`, the “hERG current change (%, negative = inhibition) at 1uM” value is on record as 9.79%.

`C=CCN1C(=O)C(C)S/C1=N\S(=O)(=O)c1ccc(Cl)cc1` (stereo not shown): the “hERG current change (%, negative = inhibition) at 1uM” value is on record as 9.59%.

In the case of `COc1ccc(C2CC(c3ccccc3)=NN2C(=O)COC(=O)C2CC2)cc1` (stereo not shown), the “hERG current change (%, negative = inhibition) at 1uM” value is listed as 3%.

As for `O=C(Nc1nc(-c2ccccc2)cs1)C1CCCCN1S(=O)(=O)c1ccccc1` (stereo not shown), the “hERG current change (%, negative = inhibition) at 1uM” value was determined as 7.14%.

As to `COc1cc(C)c(/C=C/C(C)=C/C=C/C(C)=C/C(=O)O)c(C)c1C`, the “hERG current change (%, negative = inhibition) at 1uM” value came to 10.8%.

In the case of `COC(=O)c1ccc(CNC(=O)COC(=O)COc2ccc(OC)cc2)cc1`, the “hERG current change (%, negative = inhibition) at 1uM” value is recorded as 19.6%.

In the case of `Cc1nnc(SCCn2c(N3CCC(Cc4ccccc4)CC3)nc3c2c(=O)[nH]c(=O)n3C)s1`, the “hERG current change (%, negative = inhibition) at 1uM” value is listed as 1.88%.

For the molecule `COc1ccc(C(=O)O)cc1S(=O)(=O)N(C)C`, the “hERG current change (%, negative = inhibition) at 1uM” value is listed as 17%.

Turning to `CC(C(=O)N1CCc2ccccc21)N1CCN(Cc2ccc(Cl)cc2)CC1` (stereo not shown), the “hERG current change (%, negative = inhibition) at 1uM” value is reported as -30.9%.

Take `O=C(COC(=O)c1c(Cl)cccc1Cl)Nc1cc(Cl)ccc1Oc1ccccc1`: the “hERG current change (%, negative = inhibition) at 1uM” value was found to be 1.1%.

`Cc1cc(C)nc(SC(C)CNS(=O)(=O)c2ccccc2)n1` (stereo not shown): the “hERG current change (%, negative = inhibition) at 1uM” value is reported as 10.2%.

Regarding `CCCCn1c(N)c(N(Cc2ccccc2OC)C(=O)COc2ccccc2OC)c(=O)[nH]c1=O`, the “hERG current change (%, negative = inhibition) at 1uM” value turned out to be 4.15%.

Regarding `Cc1ccc(S(=O)(=O)N2CCN(C(=O)c3ccccc3OCc3c(C)noc3C)CC2)cc1`, the “hERG current change (%, negative = inhibition) at 1uM” value was 2.96%.

For the molecule `Cc1ccc(NC(=O)COC(=O)c2ccc3c(c2)OCCO3)cc1S(=O)(=O)N1CCOCC1`, the “hERG current change (%, negative = inhibition) at 1uM” value is given as 14.5%.

On to `CN(Cc1ccco1)c1ncnc2ccc(-c3ccoc3)cc12`, for which the “hERG current change (%, negative = inhibition) at 1uM” value worked out at 7.88%.

Take `COc1cccc(C(=O)O/N=C2\CCS(=O)(=O)c3sccc32)c1`: the “hERG current change (%, negative = inhibition) at 1uM” value came out at 11.5%.

As for `Nc1ccc2nc(-c3ccccn3)[nH]c2c1`, the “hERG current change (%, negative = inhibition) at 1uM” value was found to be 10.9%.

In the case of `O=C1N(Cc2cccnc2)C[C@@H]2C[C@@H](c3cccc(C(F)(F)F)c3)N3CCC[C@@]123`, the “hERG current change (%, negative = inhibition) at 1uM” value is 4.65%.

Turning to `COc1cc(NC(=S)NC2CC2)c(OC)cc1Cl`, the “hERG current change (%, negative = inhibition) at 1uM” value is recorded as 9.02%.

Turning to `CC(C)c1csc(CN2CCN(CCc3ccccc3)C(CCO)C2)n1` (stereo not shown), the “hERG current change (%, negative = inhibition) at 1uM” value is listed as -23.1%.

`Cc1ccc2[nH]c3c(=O)n(CCc4cnc[nH]4)cnc3c2c1`: the “hERG current change (%, negative = inhibition) at 1uM” value is 5.32%.

With `C#CCOCCOCCOCCNc1nc(N2CCN(C(=O)[C@H](CCC(=O)O)n3cc(C(N)CC(C)C)nn3)CC2)nc(N2CCN(C(=O)[C@H](Cc3ccc(O)cc3)n3cc(C(N)[C@H](C)CC)nn3)CC2)n1.Cl` (stereo partly shown), the “hERG current change (%, negative = inhibition) at 1uM” value was -14.2%.

Consider `CCOC(=O)c1c(C)[nH]c(C)c1C(=O)COC(=O)c1ccc([N+](=O)[O-])s1`, for which the “hERG current change (%, negative = inhibition) at 1uM” value is reported as -2.06%.

`O=C1CC(c2ccccc2)Cc2nc(NCc3ccco3)ncc21` (stereo not shown): the “hERG current change (%, negative = inhibition) at 1uM” value is listed as -12.5%.

`CCC(Oc1ccccc1)C(=O)N(C)CC(=O)N(CC(C)C)c1c(N)n(CC(C)C)c(=O)[nH]c1=O` (stereo not shown): the “hERG current change (%, negative = inhibition) at 1uM” value turned out to be 7.85%.

As to `CCC(=O)N1CCN=C1SCc1cccc(C(F)(F)F)c1`, the “hERG current change (%, negative = inhibition) at 1uM” value amounted to 5.92%.

For the molecule `O=C(NCC1CCCO1)c1cccc(Br)c1` (stereo not shown), the “hERG current change (%, negative = inhibition) at 1uM” value is 5.03%.

With `O=C(O)c1cc(Br)ccc1NN=C1CCCCC1`, the “hERG current change (%, negative = inhibition) at 1uM” value amounted to 2.9%.

With `O=C(NCc1cccnc1)NC(C(F)(F)F)C(F)(F)F`, the “hERG current change (%, negative = inhibition) at 1uM” value is given as 2.02%.

Turning to `Cl.O=C(OCCN1CCOCC1)c1ccc(OCCN2CCOCC2)cc1`, the “hERG current change (%, negative = inhibition) at 1uM” value came out at 9.88%.

With `CCOc1ccc(NC(=O)CN(C)C(=O)CN2C(=O)C3CCCCC3C2=O)cc1OCC` (stereo not shown), the “hERG current change (%, negative = inhibition) at 1uM” value worked out at 15.3%.

As to `COc1ccc(-n2nc(C(=O)NCC(=O)N(C)Cc3ccccc3)c3ccccc3c2=O)cc1OC`, the “hERG current change (%, negative = inhibition) at 1uM” value was found to be 13.2%.

Take `CC(=O)Nc1ccc(NC(=O)[C@@H](NC(=O)N2C[C@H]3C[C@@H](C2)c2cccc(=O)n2C3)C(C)C)cc1`: the “hERG current change (%, negative = inhibition) at 1uM” value is on record as 4.56%.

Take `COc1ccccc1NC(=O)c1ccc(NC(=O)c2ccc(=O)[nH]c2)cc1`: the “hERG current change (%, negative = inhibition) at 1uM” value is 14.3%.

With `O=C(CN(C(=O)c1ccccc1Cl)N1C(=O)CCCC1=O)c1ccc(Cl)cc1`, the “hERG current change (%, negative = inhibition) at 1uM” value was found to be 13.2%.

Consider `N=c1oc2ccccc2cc1C(=O)NC1CCCCCC1`, for which the “hERG current change (%, negative = inhibition) at 1uM” value turned out to be 10.9%.

For the molecule `CN(C)CCCCCN(C)Cc1cc2ccccc2o1.Cl`, the “hERG current change (%, negative = inhibition) at 1uM” value stood at 16.2%.

As to `Cc1ccc(/C=C/c2nc3ccccc3s2)s1`, the “hERG current change (%, negative = inhibition) at 1uM” value came to 4.52%.

`CCC(C)(NC(=O)c1ccccn1)C(=O)NC1CCCCC1` (stereo not shown): the “hERG current change (%, negative = inhibition) at 1uM” value turned out to be 14.3%.

On to `Cc1ccccc1N(C(=O)c1ccccn1)C(C(=O)NCc1ccccc1)c1cccnc1` (stereo not shown), for which the “hERG current change (%, negative = inhibition) at 1uM” value amounted to 11.3%.

For the molecule `O=C(CCSc1nc2ccccc2o1)Nc1ccccc1`, the “hERG current change (%, negative = inhibition) at 1uM” value was found to be 14.8%.
